Each structure is given as a SMILES string. Among all 310,000 compounds or so, about 2,200 (0.71%) showed an effect of 50% or more. The effect is printed as a negative number. The list shows a part of the results.

Sequence of human ether-à-go-go-related gene (hERG) potassium channel (Q12809 whole entry, looked up): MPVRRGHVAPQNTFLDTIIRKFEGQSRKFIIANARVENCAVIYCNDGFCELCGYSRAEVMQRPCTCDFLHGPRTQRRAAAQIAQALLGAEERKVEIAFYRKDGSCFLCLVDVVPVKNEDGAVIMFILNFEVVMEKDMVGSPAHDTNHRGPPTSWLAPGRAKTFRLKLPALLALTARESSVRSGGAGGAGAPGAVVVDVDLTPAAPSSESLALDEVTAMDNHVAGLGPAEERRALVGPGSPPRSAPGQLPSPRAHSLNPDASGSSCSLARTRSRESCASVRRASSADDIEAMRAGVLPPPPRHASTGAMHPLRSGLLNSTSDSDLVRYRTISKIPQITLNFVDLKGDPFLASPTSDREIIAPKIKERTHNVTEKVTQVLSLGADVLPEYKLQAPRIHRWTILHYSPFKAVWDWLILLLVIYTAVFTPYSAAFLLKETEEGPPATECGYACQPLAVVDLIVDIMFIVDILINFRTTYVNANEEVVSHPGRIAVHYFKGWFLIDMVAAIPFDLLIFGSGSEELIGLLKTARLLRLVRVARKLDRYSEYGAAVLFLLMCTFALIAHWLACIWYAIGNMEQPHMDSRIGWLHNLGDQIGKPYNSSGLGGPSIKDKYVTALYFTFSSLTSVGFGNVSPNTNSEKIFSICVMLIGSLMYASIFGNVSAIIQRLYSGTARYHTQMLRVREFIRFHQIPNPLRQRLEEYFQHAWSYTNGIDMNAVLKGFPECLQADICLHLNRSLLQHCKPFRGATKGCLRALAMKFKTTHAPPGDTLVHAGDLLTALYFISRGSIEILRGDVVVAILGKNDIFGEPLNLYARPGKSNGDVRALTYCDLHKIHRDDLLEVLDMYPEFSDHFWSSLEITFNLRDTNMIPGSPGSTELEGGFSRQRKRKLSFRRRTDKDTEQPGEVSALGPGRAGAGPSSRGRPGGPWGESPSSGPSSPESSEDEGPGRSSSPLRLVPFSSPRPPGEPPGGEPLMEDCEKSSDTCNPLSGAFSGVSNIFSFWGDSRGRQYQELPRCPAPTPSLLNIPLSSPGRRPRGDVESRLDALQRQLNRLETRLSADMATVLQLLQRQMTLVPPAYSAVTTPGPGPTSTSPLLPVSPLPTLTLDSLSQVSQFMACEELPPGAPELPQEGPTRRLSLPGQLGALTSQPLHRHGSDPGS

This test addresses human ether-à-go-go-related gene (hERG) potassium channel (human, UniProt Q12809). The experiment in a line: primary screen, population patch clamp on CHO cells stably expressing hERG.
Take `CCCCOC(=O)Oc1ccc2c(=O)c(Oc3cccc(C)c3)coc2c1`: the “hERG current change (%, negative = inhibition) at 1uM” value is 6.66%. The result for `COc1ccc(C(=O)NNC(=O)C(Cc2ccc(O)cc2)NC(=O)c2ccccc2NC(=O)c2ccc(OC)cc2)cc1` (stereo not drawn) reads 4.83%; that for `Fc1ccc(CSc2ccc3nnc(-c4cccs4)n3n2)cc1`, 13.5%. The result for `CCOC(=O)c1cc(C(C)(C)C)n(CCCN2CCOCC2)c1C` reads 7.92%; that for `CCC1(c2ccc(F)cc2)NC(=O)N(CC(=O)Nc2cccnc2Cl)C1=O` (stereo not drawn), 3.81%; that for `CNC(=O)/C(C#N)=C/c1cn(CC(=O)OC)c2ccccc12`, -0.362%. The same measure for `COCc1nnc(N)s1`: 6.55%. Take `COCCNC(=O)CCCCCN1C(=O)CCC1=O`: the “hERG current change (%, negative = inhibition) at 1uM” value came out at 10.8%. The result for `COc1cccc(-n2c(SCC(=O)NC(C)(C)C)nnc2-c2ccoc2C)c1` reads -3.46%. On to `O=C1CC(N(CCc2ccccc2)C(=S)Nc2ccccc2)C(=O)N1c1ccc(F)cc1` (stereo not drawn), for which the “hERG current change (%, negative = inhibition) at 1uM” value was found to be 13.4%. For `CCCC(=O)N(c1ccc(OCC)cc1)S(=O)(=O)c1ccc2c3c(cccc13)C(=O)N2C`, the “hERG current change (%, negative = inhibition) at 1uM” value stood at 11.4%.

For the compound `CC(Oc1ccccc1)C(=O)N1CCC2(CC1)Oc1ccc(Cl)cc1C(=O)C21CC(c2ccccc2)=NO1` (stereo not drawn), the “hERG current change (%, negative = inhibition) at 1uM” value was 6.07%. The same measure for `CC1(C)CC(=O)N(c2ccc(Cl)cc2Cl)C(=O)C1`: 14.4%; for `O=[N+]([O-])c1cccc2c(Cl)ccnc12`: 11.5%; for `CCN(CCO)c1ncnc2c1sc1nc(C(C)C)c3c(c12)CC(C)(C)OC3`: 7.65%.

For the compound `COc1ccc(CNC(=O)c2nn(-c3ccccc3)cc2OC)cc1`, the “hERG current change (%, negative = inhibition) at 1uM” value is listed as 7.62%. The result for `O=c1[nH]c2ccccc2nc1NCCN1CCOCC1` reads -10.3%.

Take `CC1CC1C(=O)OCC(=O)NCc1ccccc1Cl` (stereo not drawn): the “hERG current change (%, negative = inhibition) at 1uM” value is recorded as 4.39%. The same measure for `C(=N/N1CCN(c2ccccc2)CC1)/c1cccs1`: 5.65%. For `Cc1ccc(NC(=O)CCSCCc2ccccn2)cc1`, the “hERG current change (%, negative = inhibition) at 1uM” value is listed as 3.54%. The result for `Clc1ccc(Sc2ccc(/C=N/n3cnnc3)o2)cc1` reads -10.7%. As for `COc1cccc(NC(=O)C2CCCN(S(C)(=O)=O)C2)c1` (stereo not drawn), the “hERG current change (%, negative = inhibition) at 1uM” value was determined as 22.7%. With `COc1ccc(S(=O)(=O)NNC(=O)Nc2ccc(F)cc2F)c(OC)c1`, the “hERG current change (%, negative = inhibition) at 1uM” value came out at 3.13%. The same measure for `CCN(CC)S(=O)(=O)c1cccc(C(=O)N/N=C/c2ccc(O)c(O)c2O)c1`: 8.82%. The same measure for `O=C(NC1=NCCS1)C1CC(=O)N(c2ccc(Cl)cc2)C1` (stereo not drawn): 7.68%.

On to `COc1ccc2c(c1)CC1(CN2C)C(=O)NC(=O)N(c2ccc(F)cc2)C1=O` (stereo not drawn), for which the “hERG current change (%, negative = inhibition) at 1uM” value is given as 4.41%. The same measure for `CC[N+](CC)(CC=C(C)C)CC(=O)OC.[Cl-]`: 19.5%; for `O=C(Cn1nnc(-c2ccccc2)n1)NCc1ccco1`: 7.3%; for `O=C(CSc1nc2ccccc2[nH]1)c1ccco1`: -3.42%.

Regarding `CCOC(=O)c1c(S(=O)(=O)NCC(=O)NCc2ccccc2)c(C)n(C)c1C`, the “hERG current change (%, negative = inhibition) at 1uM” value is recorded as 13.1%. The same measure for `COc1ccc(/C=C2\SC(=S)N(CCCC(=O)N3CCN(C)CC3)C2=O)cc1`: 1.76%. The result for `COc1cccc(/C=C2/Oc3ccccc3N(CC(=O)NCC3CCCO3)C2=O)c1` (stereo not drawn) reads 19.6%; that for `Cn1nccc1C(=O)Nc1ccc2c(c1)OCCO2`, -0.951%. The same measure for `Cc1cc(/C=N\NC(=O)c2cccs2)c(C)n1-c1ccc2ncccc2c1`: 10.6%. For the compound `Cc1sc(NC(=O)CSc2ncn(-c3ccccc3)n2)nc1-c1ccccc1`, the “hERG current change (%, negative = inhibition) at 1uM” value is reported as -0.472%. The result for `COc1ccc(C2Sc3nncn3N2Cc2ccc(C#N)cc2)cc1` (stereo not drawn) reads 9.19%; that for `COc1ccc(COc2ncnc3ccc(Br)cc23)cc1F`, 11.7%. The same measure for `O=C(CN1CCN(C(=O)C2CCCO2)CC1)Nc1ccc(F)cc1` (stereo not drawn): -4.59%.

Turning to `CCC(C)NC(=O)c1ccc(NS(=O)(=O)c2ccc3[nH]c(=O)[nH]c3c2)cc1` (stereo not drawn), the “hERG current change (%, negative = inhibition) at 1uM” value turned out to be 14.6%. For `CCCCN(C(=O)c1ccc2c(c1)OCO2)C1CCS(=O)(=O)C1` (stereo not drawn), the “hERG current change (%, negative = inhibition) at 1uM” value is reported as 9.3%.

`CC(C)(C)OC(=O)[C@H](NC(=O)OCc1ccccc1)c1ccccc1`: the “hERG current change (%, negative = inhibition) at 1uM” value is 3.44%. The same measure for `CCOc1ccc(CCNC(=O)C2CCN(S(=O)(=O)CC)CC2)cc1OCC`: 0.674%; for `CCC(Sc1nc2ccccc2o1)C(=O)O` (stereo not drawn): 5.72%; for `Cc1cc(NS(=O)(=O)c2ccc(NC(=O)c3ccc(Cl)cc3Cl)cc2)no1`: 13.6%. The result for `O=C(NN1C(=O)C2C3C=CC(C4CC34)C2C1=O)c1ccc(Cl)c(Cl)c1` (stereo not drawn) reads 16.2%.

The record behind these values is article PMC4336329 (PLoS ONE, 2015).
